Assay results as given in article PMC4336329 (PLoS ONE, 2015).
The whole screen tested about 310,000 compounds, of which about 2,200 (0.71%) showed an effect of 50% or more. Effects have a minus sign here. The list shows a part of the results.

molecular target: human ether-à-go-go-related gene (hERG) potassium channel (human, UniProt Q12809); assay: primary screen, population patch clamp on CHO cells stably expressing hERG
Sequence (Q12809 whole entry, looked up): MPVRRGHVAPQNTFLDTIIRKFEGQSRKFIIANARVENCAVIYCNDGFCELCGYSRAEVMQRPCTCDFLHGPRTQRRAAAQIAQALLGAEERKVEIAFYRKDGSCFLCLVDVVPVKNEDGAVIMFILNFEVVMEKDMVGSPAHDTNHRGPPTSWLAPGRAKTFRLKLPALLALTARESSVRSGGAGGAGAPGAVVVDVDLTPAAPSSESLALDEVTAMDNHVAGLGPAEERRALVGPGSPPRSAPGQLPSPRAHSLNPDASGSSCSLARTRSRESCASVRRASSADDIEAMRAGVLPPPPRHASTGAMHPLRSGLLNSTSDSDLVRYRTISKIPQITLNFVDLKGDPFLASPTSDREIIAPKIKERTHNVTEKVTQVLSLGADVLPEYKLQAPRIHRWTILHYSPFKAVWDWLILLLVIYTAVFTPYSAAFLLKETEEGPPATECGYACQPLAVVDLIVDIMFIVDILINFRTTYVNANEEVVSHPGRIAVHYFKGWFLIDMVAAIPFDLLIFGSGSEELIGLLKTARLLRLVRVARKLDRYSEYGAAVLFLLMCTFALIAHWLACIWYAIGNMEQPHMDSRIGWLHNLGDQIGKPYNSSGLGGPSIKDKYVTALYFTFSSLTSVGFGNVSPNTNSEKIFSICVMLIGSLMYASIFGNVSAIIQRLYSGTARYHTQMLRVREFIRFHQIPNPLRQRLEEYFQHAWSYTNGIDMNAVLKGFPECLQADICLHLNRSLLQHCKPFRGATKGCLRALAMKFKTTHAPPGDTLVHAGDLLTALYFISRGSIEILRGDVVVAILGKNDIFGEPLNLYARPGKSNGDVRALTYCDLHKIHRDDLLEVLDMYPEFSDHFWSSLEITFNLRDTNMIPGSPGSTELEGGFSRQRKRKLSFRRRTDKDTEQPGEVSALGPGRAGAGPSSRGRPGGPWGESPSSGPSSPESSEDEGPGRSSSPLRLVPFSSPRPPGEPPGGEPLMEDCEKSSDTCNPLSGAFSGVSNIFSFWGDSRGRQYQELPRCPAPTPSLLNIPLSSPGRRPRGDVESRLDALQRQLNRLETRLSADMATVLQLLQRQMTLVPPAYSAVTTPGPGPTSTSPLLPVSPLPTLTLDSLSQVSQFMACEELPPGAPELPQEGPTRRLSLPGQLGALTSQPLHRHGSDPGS

| Structure (SMILES) | hERG current change (%, negative = inhibition) at 1uM [%] |
| --- | --- |
| O=C(c1ccc(OC2CCN(Cc3ccccc3C(F)(F)F)CC2)cc1)N1CCCCC1 | 11.5 |
| COC(=O)c1[nH]c(C)c(/C(O)=C2\C(=O)C(=O)N(CCN3CCOCC3)C2c2ccc(C)o2)c1C (stereo not shown) | -2.34 |
| Cc1cccc(N(CC(=O)NCC2CCCO2)C(=O)CCC(=O)Nc2nccs2)c1 (stereo not shown) | 13 |
| COc1ccc(OCC(=O)Nc2nnc(C)s2)cc1 | 12.8 |
| Cc1oc(-c2ccccc2Cl)nc1CS(=O)(=O)CC(=O)NC(C)c1ccccc1 (stereo not shown) | 11.5 |
| O=C(NC1CCCCC1)c1cc(-c2ccco2)on1 | 13 |
| NP(=O)(OCC(F)(F)F)Oc1cccc2ccccc12 (stereo not shown) | 4.02 |
| CC(C)(C)C(=O)CN1C(=O)NC2(CCOc3ccccc32)C1=O (stereo not shown) | 15.9 |
| Cc1noc(C)c1C(=O)Nc1ccccc1N1CCCC1 | 6.57 |
| CCC(C)/C(C)=N/NC(=O)c1ccc(CSc2nc3ccccc3s2)cc1 (stereo not shown) | -2.07 |
| COc1ccc(NC(=O)c2cc(=O)[nH]c(=O)[nH]2)cc1S(=O)(=O)Nc1ccccc1Cl | 5.23 |
| O=C1c2[nH]nc(-c3ccccc3O)c2C(c2cccc(Cl)c2)N1CC1CCCO1 (stereo not shown) | 11.6 |
| C=CCn1c(COc2ccc(OC)cc2)nnc1SCn1nnc2ccccc2c1=O | -2.1 |
| COc1ccc(OCC#CCN2CC(C)OC(C)C2)cc1.O=C(O)C(=O)O (stereo not shown) | 2.64 |
| C=CCN(Cc1nc(-c2ccc(OC)c(OC)c2)oc1C)C1CCS(=O)(=O)C1 (stereo not shown) | 11.4 |
| O=C(COc1ccc(NC(=O)c2cccs2)cc1)c1ccc(F)cc1 | 14.1 |
| CCCc1ccc(OCCNC(=O)c2ccccc2Br)cc1 | 11.6 |
| COc1ccc(S(=O)(=O)Nc2cc(C(=O)NCCCOC(C)C)ccc2N2CCOCC2)cc1 | 6.26 |
| Cc1ccc(C)c(NC(=O)CN(C)C(=O)Cc2coc3cc(C)c(C)cc23)c1 | 7.55 |
| CC1=CC(C)(C)n2c(O)c(C3=NC(=S)NC3=O)c3cc(OC(=O)c4cccc5ccccc45)cc1c32 | 17.3 |
| NC(=O)CSc1nnc(Cc2ccc3c(c2)OCO3)o1 | -7.08 |
| Cn1c(=O)c2c(nc(CN3CCc4ccccc4C3)n2CCCO)n(C)c1=O | -0.628 |

| Structure (SMILES) | hERG current change (%, negative = inhibition) at 1uM [%] |
| --- | --- |
| COc1ccc(CNC(=O)C(c2ccco2)N(Cc2ccccc2)C(=O)Cc2cccs2)cc1 (stereo not shown) | 13.1 |
| Cc1ccc(S(=O)(=O)CCC(=O)Nc2nc(-c3cccnc3)cs2)cc1 | 15.1 |
| COc1ccc2oc(-c3ccccc3)c(C(=O)N3CCOCC3)c2c1 | 8.86 |
| CCN(CC)S(=O)(=O)c1ccc(N2CCOCC2)c(NC(=O)c2c3c(nc4ccccc24)CCC3)c1 | 6.32 |
| Cc1ccccc1OCC(=O)OCC(=O)Nc1cc(S(C)(=O)=O)ccc1Cl | 1.96 |
| COc1ccc(-c2nc(N)nc(C(F)(F)F)c2-c2csc(C)n2)c(O)c1 | 8.04 |
| COc1cc(/C=N/N(C)C2=NS(=O)(=O)c3ccccc32)cc(OC)c1OC | 15.4 |
| Cn1cc(NC(=O)Nc2ccc(C(F)(F)F)cc2)c(C(F)(F)F)n1 | 11.9 |
| COc1cccc(C(=O)C[n+]2cccc3cc(OC)ccc32)c1.[Br-] | 17.7 |
| COC(=O)c1ccc(CC(=O)c2nc3ccccc3s2)cc1 | 17.1 |
| Cc1ccc(NC(=O)COC(=O)c2ccc(=O)n(Cc3ccccc3)n2)cc1F | 12.2 |
| C=CCn1c(SCC(=O)N(C)C2CCS(=O)(=O)C2)nc2ccccc2c1=O (stereo not shown) | -36.1 |
| COc1ccc(C(=O)NC2CCCN(Cc3ccc(Cl)cc3)C2)c(OC)c1 (stereo not shown) | -4.67 |
| CC(=O)Nc1nonc1NC(=O)CSc1nc2ccccc2o1 | -2.2 |
| Cc1cc(C(=O)NCCc2ccccc2)ccc1[N+](=O)[O-] | 8.52 |
| O=C(c1ccccc1)N(C1=NCCCCS1)c1ccccc1 | 0.649 |
| CCOc1cc(CNc2ccccc2SC)ccc1O | 1.93 |
| COc1ccc(CCNC(=O)CSc2nnc(Cc3csc(N)n3)n2C)cc1OC | 3.32 |
| Fc1ccc(CNC(=S)Nc2ccccc2F)cc1 | 8.43 |
| CCC(=O)Nc1ccc(NC(=O)CSc2nnnn2C(C)C)cc1 | 4.83 |
| COC(=O)C(NS(=O)(=O)c1cccc(S(=O)(=O)NC(C(=O)OC)c2ccccc2)c1)c1ccccc1 (stereo not shown) | -35.5 |
| COc1ccccc1Nc1nc(C)c(C(=O)Nc2ccccc2)s1 | 13.6 |

| Structure (SMILES) | hERG current change (%, negative = inhibition) at 1uM [%] |
| --- | --- |
| Cc1ccc(C2C(/C=C3/SC(=S)NC3=O)=C(c3cccs3)Oc3ccccc32)cc1 (stereo not shown) | 2.1 |
| CSc1ccc(/C=C/c2cc(=O)c3ccccc3[nH]2)cc1 | 4.99 |
| CSc1nsc(SCC(=O)Nc2ccc(C(C)=O)cc2)n1 | 13 |
| O=Cc1cn(Cc2ccc(Br)cc2)c2ccccc12 | 13.6 |
| CCC(C)[C@H](NC(=O)Nc1ccc(Oc2ccccc2)cc1)C(=O)O (stereo partly shown) | 15.6 |
| S=c1[nH]nc(Cc2ccc(Cl)cc2)n1-c1ccc2c(c1)OCCO2 | 0.474 |
| Cc1occc1C(=O)Nc1ccc(OCc2ccccc2)cc1 | 7.35 |
| COc1ccc(F)c(-c2nc(CN3CCN(C(=O)c4ccco4)CC3)c(C)o2)c1 | 1.85 |
| COc1ccc(S(=O)(=O)n2[nH]c(=O)c(CCO)c2C)c([N+](=O)[O-])c1 | 16.2 |
| Cn1c(SCC(=O)NC(C)(C)C)nnc1-c1cnccn1 | 15.2 |
| COc1cccc(NC(=O)C2CCN(S(=O)(=O)c3ccc4c(c3)C(C)(C)C(=O)N4C)CC2)c1 | 14.3 |
| CC(=O)c1cccc(NC(=O)NN2CCN(C)CC2)c1 | 18.3 |
| COc1ccc(CNC(=O)C2CCN(C(=O)c3sccc3-n3cccc3)CC2)cc1 | 18.9 |
| CCOc1ccc(-c2nc(CCl)cs2)cc1OC.Cl | 8.03 |
| O=C(COc1ccccc1F)NNC(=O)Cc1ccc(S(=O)(=O)N2CCOCC2)s1 | 13 |
| O=C1CN(CC(=O)NC(=O)NCc2ccccc2)CCN1 | 9.77 |
| COc1ccccc1NC(=O)CCc1c(C)nc2c(-c3ccc(F)cc3)c(C)nn2c1C | -0.619 |
| O=S(=O)(c1ccc(SCCOc2ccc(F)cc2)nc1)N1CCCC1 | 7.32 |
| O=C(CCN1C(=O)c2ccccc2S1(=O)=O)Nc1cc(Cl)ccc1Cl | -1.7 |
| O=C(CSc1nnc(CNC(=O)c2ccccc2F)o1)Nc1ccc2c(c1)OCO2 | 0.474 |
| COC(=O)c1ccc(OC)cc1OCC(=O)N1CCN(c2ccc(F)cc2)CC1 | -2.05 |
| Cc1cccc(-n2c(O)c(/C=C/C=Nc3ccccc3)c(=O)[nH]c2=O)c1 | 3.36 |

| Structure (SMILES) | hERG current change (%, negative = inhibition) at 1uM [%] |
| --- | --- |
| CC(CCC(C)OC(=O)c1ccccc1C(=O)O)OC(=O)c1ccccc1C(=O)O (stereo not shown) | 10.6 |
| COc1ccc(NS(=O)(=O)c2ccc(-n3cnnn3)cc2)cc1OC | 14.3 |
| COc1ccc(OC)c(-n2c(C)nc3cc(C(=O)O)ccc32)c1 | 0.714 |
| C(=C\c1ccncc1)/c1ccncc1 | -0.249 |
| COc1ccc(CNC(=O)CCSCc2ccccc2Cl)c(OC)c1 | 10.1 |
| CCOc1ncccc1C(=O)OC(C)C(=O)NC(=O)NC1CCCCC1 (stereo not shown) | -11.1 |
| COC(=O)c1cccc(NC(=O)CSc2nc(C)cc(=O)[nH]2)c1 | 18.3 |
| COC(=O)Nc1ccc(S(=O)(=O)N2CCCC(C(=O)N3CCOCC3)C2)cc1 (stereo not shown) | 1.16 |
| CCC(C(=O)NCCc1c[nH]c2ccc(C)cc12)c1ccccc1 (stereo not shown) | 11.8 |
| CN(Cc1ccccc1)c1ncc(C=O)s1 | 13.7 |
| CC1CCN(CCC(=O)Nc2nccs2)CC1 | 16.3 |
| O=C(CN1C(=O)NC2(CCCC2)C1=O)OCc1cc(=O)n2cc(Br)ccc2n1 | 4.9 |
| CC(=O)Nc1ccc2c(c1)CCCC2 | 11.7 |
| CN(C(=O)/C=C/c1ccc([N+](=O)[O-])s1)c1ccccc1 | 10.7 |
| CC12CCC(=O)N1C(C(=O)Nc1ccccc1N1CCOCC1)CS2 (stereo not shown) | 9.04 |
| Cc1c(Cl)cccc1NC(=O)C1CCCN(S(C)(=O)=O)C1 (stereo not shown) | 15.8 |
| OCCNCC12CC3CC(CC(C3)C1)C2 | 11.1 |
| O=C(CCc1nnc2ccc(N3CCCC3)nn12)Nc1ccc(F)cc1F | 16.1 |
| CCc1nc(SCC(=O)Nc2ccccc2C)n[nH]1 | 17.9 |
| CCn1c(SCC(=O)Nc2cc(C)on2)nnc1-c1cccnc1 | 2.2 |
| O=C(O)C(=O)/C(=C\c1ccc([N+](=O)[O-])cc1)c1ccc2ccccc2n1 | -2.09 |
| O=C(CNC(=S)N(CCCN1CCOCC1)Cc1cccs1)NCc1ccccc1Cl | -35.5 |
